This note sets out measurements from PubChem BioAssay AID360 (National Center for Advancing Translational Sciences (NCATS), 2006).

About 550 (1.1%) of roughly 48,000 compounds were called active. Another 4% or so got no clear call; they are omitted. Cut-off read from the data, not from the text of the source: active = potency below about 15 µM; inconclusive = mostly about 16 µM to 33 µM; inactive = weaker than that. This is one part of the list.
Potency is the fitted concentration of half-maximal effect.

UniProt P04062, sequence (P04062 whole entry, looked up): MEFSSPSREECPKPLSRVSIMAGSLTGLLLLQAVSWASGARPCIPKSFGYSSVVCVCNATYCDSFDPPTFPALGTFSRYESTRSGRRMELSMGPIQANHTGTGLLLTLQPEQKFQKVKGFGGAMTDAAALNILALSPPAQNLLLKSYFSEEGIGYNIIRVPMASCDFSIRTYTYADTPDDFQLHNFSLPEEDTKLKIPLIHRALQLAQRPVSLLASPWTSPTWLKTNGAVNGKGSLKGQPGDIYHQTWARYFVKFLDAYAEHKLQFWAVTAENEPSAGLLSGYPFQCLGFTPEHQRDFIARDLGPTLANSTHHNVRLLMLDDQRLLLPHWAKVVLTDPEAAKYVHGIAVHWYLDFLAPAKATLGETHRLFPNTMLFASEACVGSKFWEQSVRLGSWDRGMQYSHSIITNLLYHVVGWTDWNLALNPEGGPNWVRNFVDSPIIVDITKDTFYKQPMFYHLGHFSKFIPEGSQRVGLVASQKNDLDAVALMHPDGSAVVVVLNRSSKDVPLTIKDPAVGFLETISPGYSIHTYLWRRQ

For the test, the target named is Lysosomal acid glucosylceramidase (Homo sapiens) (UniProt P04062). As to the kind of experiment: Glucocerebrosidase.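 Note: the screen sought inhibitors.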 Conditions: purified enzyme, resorufin glucoside fluorescence (screen aimed at inhibitors), 20 min; series mostly up to 77 µM. The essentials:
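Compounds titrated against 0.2 nM normal enzyme, 30 uM resorufin beta-D-glucopyranoside substrate, citrate/phosphate buffer with taurocholate and tween-20, pH 5.9. Reaction ran 20 min at room temperature; fluorescence (Ex 548/Em 600) gave AC50.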
For the molecule `O=C(CN1CCC(n2nnc3cc(F)ccc32)CC1)NC1CCCCC1`, the Potency is inactive: > 76.9 µM. Turning to `COC(=O)c1ccc(Sc2ccc(C)cc2)c(N)c1`, the Potency is inactive: > 76.9 µM. Under `CCOC(=O)c1c(-c2ccc(C)o2)csc1NC(=O)CSc1nnnn1-c1ccccc1` stands inactive: > 76.9 µM; under `c1ccc2c(SCc3cn4cccnc4n3)ncnc2c1`, inactive: > 76.9 µM; under `C=CCn1c(SCC(=O)O)nnc1-c1cccc(Cl)c1`, inactive: > 76.9 µM. Under `CCOc1ccc(OCC)c(N=c2oc3c(C)ncc(CO)c3cc2C(N)=O)c1` stands inactive: > 76.9 µM; under `CS(=O)(=O)N1CCc2cc(C(=O)O)ccc21`, inactive: > 76.9 µM.

Consider `Cn1c(SCC(=O)Nc2cccc3ccccc23)nc(O)cc1=O`, for which the Potency is inactive: > 76.9 µM. Then `O=C(c1cccs1)c1cn(CC(=O)N2CCc3ccccc3C2)c2ccccc12`, with inactive: > 76.9 µM; and `COCCn1c(=S)[nH]c2cc(OC)c(OC)cc2c1=O`, with inactive: > 76.9 µM; and `CC(C)CC(=O)Nc1nnn(C)n1`, with inactive: > 76.9 µM.

For the molecule `NC(=O)c1cc2n(n1)C(C(F)(F)F)CC(c1ccco1)N2` (stereo unspecified), the Potency was inactive: > 76.9 µM. Then `Cc1nn(C)c(C)c1NC(=O)c1ccnn1C`, with inactive: > 76.9 µM; and `COc1ccc(C(c2nnnn2Cc2cccs2)N2CCN(c3ccccc3F)CC2)cc1` (stereo unspecified), with inactive: > 76.9 µM; and `COc1ccc(C2CC(=O)NC3=C2C(=O)CCC3)cc1Cl` (stereo unspecified), with inactive: > 76.9 µM.

Regarding `CC(C)Sc1oc(-c2ccco2)nc1S(=O)(=O)c1ccc(F)cc1`, the Potency result is “inactive”. Under `Cc1cccc(Cn2c(C(C)O)nc3ccccc32)c1` (stereo unspecified) stands inactive: > 76.9 µM; under `COc1ccc(-c2nnn(CC(=O)c3ccc4c(c3)OCCO4)n2)cc1OC`, inactive: > 76.9 µM. Then `CCOc1ccc(C2/C(=C(\O)c3ccc(OC)c(OC)c3)C(=O)C(=O)N2c2cc(C)on2)cc1OC` (stereo unspecified), with inactive: > 76.9 µM; and `COCCN(CC(=O)NCc1ccc(F)cc1)C(=O)CCC(=O)Nc1nccs1`, with inactive: > 76.9 µM; and `CN(C)c1ccc(/C=c2\sc3n(c2=O)CCCN=3)cc1`, with inactive: > 76.9 µM. Regarding `CCOc1ccc(-c2nnn(CC(=O)c3cc(OC)ccc3OC)n2)cc1`, the Potency was inactive: > 76.9 µM. Turning to `Cn1nc(C(=O)NCc2cccnc2)c2ccccc2c1=O`, the Potency is inactive: > 76.9 µM. Under `COC(=O)c1sc(NC(=O)CSc2nc3cccnc3n2C2CCCCC2)nc1C` stands inactive: > 76.9 µM; under `Cc1cccc(-c2noc(Cc3ccc(Cl)cc3)n2)c1`, inactive: > 76.9 µM. Under `CCOC(=O)c1nnc2cc(-c3ccc(Br)cc3)nn2c1C` stands inactive: > 76.9 µM.
